This is one part of the list. The energies were worked out here from pooled read counts, against the library average; single values are noisy.
target: T1, Pho4 (S. cerevisiae) (UniProt P07270); assay: relative binding free energy (BET-seq); higher = weaker binding; conditions: reference: library average
T1 sequence: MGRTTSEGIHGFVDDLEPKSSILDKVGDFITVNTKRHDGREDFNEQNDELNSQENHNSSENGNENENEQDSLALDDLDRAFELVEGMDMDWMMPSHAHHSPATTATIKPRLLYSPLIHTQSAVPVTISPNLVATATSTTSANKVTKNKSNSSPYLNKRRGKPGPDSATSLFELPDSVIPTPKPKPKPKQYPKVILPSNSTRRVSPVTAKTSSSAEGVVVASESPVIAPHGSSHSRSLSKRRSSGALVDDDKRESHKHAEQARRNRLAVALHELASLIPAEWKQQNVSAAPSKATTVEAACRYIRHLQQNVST

Sequence | relative binding free energy
CGCGGCACGTGTAGTT | -0.08 kcal/mol
TAGCTCACGTGAAGGG | 0.33 kcal/mol
GTTAGCACGTGTTCAG | 0.02 kcal/mol
CTTGTCACGTGTTAAG | 0.2 kcal/mol
AAAGGCACGTGAGAGG | 0.16 kcal/mol
GGTTTCACGTGTGTAC | 0.38 kcal/mol
GGCTGCACGTGGAGGC | 0.07 kcal/mol
GAGGTCACGTGAGGTG | 0.39 kcal/mol
CGTGGCACGTGTTGGG | -0.1 kcal/mol
AATTTCACGTGTGGGC | 0.35 kcal/mol
TAGTTCACGTGGGGTG | 0.16 kcal/mol
GGTGCCACGTGCAAGT | 0.03 kcal/mol
TATTTCACGTGTTTTT | 0.24 kcal/mol
AAGATCACGTGAGGAT | 0.25 kcal/mol
TGGAACACGTGGGGTT | 0.02 kcal/mol
AGTAGCACGTGAAGGA | 0.18 kcal/mol
TTTGCCACGTGGTGCG | -0.26 kcal/mol
TTTTGCACGTGGCTTC | -0.02 kcal/mol
AGAGCCACGTGGGTAT | -0.01 kcal/mol
GTGGTCACGTGAGTTT | 0.37 kcal/mol
GTTTGCACGTGAATGT | 0.23 kcal/mol
AGGTGCACGTGGAGGG | -0.06 kcal/mol
CGGTACACGTGTGTTT | 0.06 kcal/mol

Sequence | relative binding free energy
GATCGCACGTGAGGTT | 0.33 kcal/mol
TGGGACACGTGATGCG | 0.2 kcal/mol
AGAGTCACGTGCTTGG | 0.07 kcal/mol
GGGGTCACGTGCTAAG | 0.09 kcal/mol
CTTTACACGTGGTCTG | 0.04 kcal/mol
TCTGCCACGTGTGGTA | -0.01 kcal/mol
TGGCGCACGTGGCGGT | -0.14 kcal/mol
GTGCTCACGTGAGGTT | 0.22 kcal/mol
GGTCGCACGTGGTCGT | -0.11 kcal/mol
GTAATCACGTGGAATG | 0.08 kcal/mol
ATGGTCACGTGATCGG | 0.27 kcal/mol
GTGGCCACGTGAGTAT | 0.16 kcal/mol
ACGGTCACGTGCGTGG | 0.03 kcal/mol
GAGGTCACGTGGTGGT | 0.2 kcal/mol
TTGAGCACGTGTTGGT | -0.05 kcal/mol
ATTGCCACGTGTAAGG | 0.05 kcal/mol
TTTAACACGTGGTCTG | -0.09 kcal/mol
TTGTGCACGTGTTGGG | 0.02 kcal/mol
TTCGGCACGTGTAGGA | -0.1 kcal/mol
AGATGCACGTGGAATT | 0.08 kcal/mol
AATACCACGTGTTGTT | -0.07 kcal/mol
AGTTCCACGTGTATGG | 0.07 kcal/mol
TTCGGCACGTGGTTCG | -0.1 kcal/mol

Sequence | relative binding free energy
GAGGGCACGTGCCTTG | -0.08 kcal/mol
TTTTACACGTGCGCTT | 0.1 kcal/mol
GCTGGCACGTGAGTGG | 0.21 kcal/mol
ATAGTCACGTGGTTAT | 0 kcal/mol
AGTGGCACGTGGCACT | -0.03 kcal/mol
TAGTGCACGTGTGGAG | 0.05 kcal/mol
GCTTTCACGTGTGGCT | 0.36 kcal/mol
GTGTCCACGTGTAGAG | 0.08 kcal/mol
GAGATCACGTGTTGGG | 0.25 kcal/mol
CATCGCACGTGGGCGG | -0.12 kcal/mol
GGCTGCACGTGGTGGG | -0.1 kcal/mol
TGGGACACGTGGAGTA | 0.02 kcal/mol
AGGTGCACGTGCTAGT | -0.06 kcal/mol
TTGTACACGTGGAGAG | 0.02 kcal/mol
TAGGTCACGTGGAGGC | 0.1 kcal/mol
ACTATCACGTGTGGTG | 0.21 kcal/mol
ATGTACACGTGTGAGT | 0.2 kcal/mol
AATGGCACGTGGACTG | 0.03 kcal/mol
GGGGTCACGTGTATAT | 0.24 kcal/mol
ATGGGCACGTGACTTG | -0.03 kcal/mol
AGGAACACGTGGTGTT | -0.09 kcal/mol
CGAAGCACGTGCGGGG | -0.14 kcal/mol
GCCTTCACGTGGGGGG | 0.06 kcal/mol

Sequence | relative binding free energy
TGGTGCACGTGAGTTG | 0.31 kcal/mol
TTTATCACGTGGACGT | 0.21 kcal/mol
GTCTGCACGTGTTTAT | 0.07 kcal/mol
CTTTTCACGTGATCGT | 0.15 kcal/mol
TCCGGCACGTGGGTTT | -0.22 kcal/mol
GGGATCACGTGTGCAG | 0.11 kcal/mol
AGTGGCACGTGGGCCA | -0.18 kcal/mol
AGGATCACGTGGTTGA | 0.11 kcal/mol
TGGGACACGTGGGGTT | -0.02 kcal/mol
TGTCTCACGTGGGGTC | 0.06 kcal/mol
AAGTCCACGTGTGGGG | 0.06 kcal/mol
TCGGTCACGTGGGTAG | 0.06 kcal/mol
GTATTCACGTGGAACG | 0.39 kcal/mol
ATTGGCACGTGGTATA | -0.27 kcal/mol
TATACCACGTGATGGT | 0.14 kcal/mol
ATTTTCACGTGAGGTG | 0.38 kcal/mol
TGTGACACGTGAAGAG | 0.17 kcal/mol
GGGTCCACGTGGTATA | -0.03 kcal/mol
TAGGGCACGTGGGAGC | -0.18 kcal/mol
CGTGTCACGTGGTCGT | -0.02 kcal/mol
TCGGGCACGTGGGGTG | -0.27 kcal/mol
AAAGCCACGTGGGGGT | -0.18 kcal/mol
AATGGCACGTGAAAGG | 0.21 kcal/mol

Sequence | relative binding free energy
ATAGGCACGTGCGCGG | -0.28 kcal/mol
TAATACACGTGTTGAG | 0.05 kcal/mol
TTCGACACGTGTCTTG | 0.19 kcal/mol
CTGGACACGTGAGTTA | 0.19 kcal/mol
TATCGCACGTGGAGAG | -0.04 kcal/mol
TTAGCCACGTGGGGCT | -0.25 kcal/mol
GGGAGCACGTGAAAGT | 0.28 kcal/mol
CTTGGCACGTGAGTAT | 0.17 kcal/mol
TTTATCACGTGCTGGG | 0.18 kcal/mol
GATTTCACGTGGGATC | 0.33 kcal/mol
TTAAGCACGTGAAATT | 0.25 kcal/mol
TCATGCACGTGCGGGG | -0.06 kcal/mol
TGTATCACGTGGGCTT | 0.06 kcal/mol
TCGTACACGTGTGTTT | 0.07 kcal/mol
TTGAACACGTGGGCTT | 0.03 kcal/mol
TGCGTCACGTGAATAT | 0.23 kcal/mol
GGGGGCACGTGCAGTA | -0.11 kcal/mol
ATAGGCACGTGTTCTG | -0.19 kcal/mol
GTCTGCACGTGGTTAA | -0.02 kcal/mol
GGGTTCACGTGAAGTA | 0.43 kcal/mol
GGGGTCACGTGTGGCA | 0.22 kcal/mol
TTAGGCACGTGATAGG | -0.04 kcal/mol
GTGGTCACGTGTCTCT | 0.14 kcal/mol

From the BET-seq Pho4 binding data (Le et al. 2018)
